The supplement of paper PMC11880418
Where a name gives a salt, the structure may show the parent alone. The list shows a part of the results. The data scatter; read single values as rough.

Legend:
Test in all cases: ALDHbr (CSC) cell proportion score relative to DMSO vehicle (ratio to DMSO); breast (SUM159) / gastric (MKN45) / pancreatic (PANC1) / colon cancer lines; ALDHbr cells have high ALDH activity and are rich in cancer stem cells (CSC); higher = more CSC (ALDHbr) cells remaining
Conditions in all cases: 10 µM; 72 h
MKN45 = test system: MKN45
PANC1 = test system: PANC1
SUM159 = test system: SUM159
T84 = test system: T84
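Note: High-content imaging of ALDEFLUOR-stained cells with Hoechst-labelled nuclei in 384-well plates, triplicate wells, scored as Z-score against 0.1% DMSO vehicle, negative meaning fewer ALDHbr cells.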

SMILES | ALDHbr (MKN45) | ALDHbr (PANC1) | ALDHbr (SUM159) | ALDHbr (T84)
CCOC(=O)C1=C(COCCN)NC(C)=C(C(=O)OC)C1c1ccccc1Cl (stereo not drawn) [Amlodipine] | 1.04 | 0.833 | 0.427 | 0.391
CC(C)C[C@H](NC(=O)[C@@H](O)[C@H](N)Cc1ccccc1)C(=O)O [Ubenimex] | 0.34 | 0.878 | 0.697 | 0.976
c1ccc([C@H]2CN3CCSC3=N2)cc1 [Levamisole hydrochloride] | 0.991 | 0.926 | 0.921 | 0.93
Cc1cc(C(=O)NNCc2ccccc2)no1 [Isocarboxazid] | 1.04 | 0.992 | 1.31 | 1.05
NS(=O)(=O)c1cc2c(cc1C(F)(F)F)NCNS2(=O)=O [Hydroflumethiazide] | 0.883 | 0.835 | 0.842 | 0.986
CCN1CCCC(OC(=O)C(c2ccccc2)c2ccccc2)C1 (stereo not drawn) [Piperidolate hydrochloride] | 1.01 | 0.985 | 0.843 | 0.999
Cc1ncc(CO)c(CO)c1O [Pyridoxine hydrochloride] | 1.04 | 0.958 | 0.808 | 0.98
CCCCC(O)c1ccccc1 (stereo not drawn) [Fenipentol] | 1.03 | 1.07 | 0.942 | 0.882
CN(C)c1nc(N(C)C)nc(N(C)C)n1 [Altretamine] | 1.02 | 1.02 | 1.02 | 0.909
CC/C(=C(/CC)c1ccc(O)cc1)c1ccc(O)cc1 [Diethylstilbestrol] | 0.981 | 1 | 0.855 | 1.04
OCCN1C[C@H](O)[C@@H](O)[C@H](O)[C@H]1CO [Miglitol] | 1.07 | 1.04 | 0.988 | 0.903
NC12CC3CC(CC(C3)C1)C2 [Adamantamine fumarate] | 1.15 | 0.893 | 0.704 | 1.07
CN(C)CCC=C1c2ccccc2C=Cc2ccccc21 [Cyclobenzaprine hydrochloride] | 0.964 | 0.972 | 0.653 | 0.631
NCCCC(O)(P(=O)(O)O)P(=O)(O)O [Alendronate sodium] | 1.12 | 0.811 | 1.34 | 1.08
Clc1ccccc1C(c1ccccc1)(c1ccccc1)n1ccnc1 [Clotrimazole] | 1.34 | 1.15 | 0.694 | 0.847
NC[C@@H]1O[C@@H](O[C@H]2[C@H](O)[C@@H](O[C@H]3O[C@H](CO)[C@@H](O)[C@H](N)[C@H]3O)[C@H](N)C[C@@H]2N)[C@@H](O)[C@H](O)[C@H]1O [Kanamycin A sulfate] | 0.973 | 0.958 | 1.24 | 1.05
Cc1ccc(-c2cc(C(F)(F)F)nn2-c2ccc(S(N)(=O)=O)cc2)cc1 [Celecoxib] | 0.454 | 0.367 | 0.899 | 0.78
CC(C)(C)NC[C@H](O)COc1cccc2c1CCCC2=O [(-) -Levobunolol hydrochloride] | 0.929 | 0.865 | 0.848 | 0.871
CCOC(=O)/C=C(C)/C=C/C=C(C)/C=C/c1c(C)cc(OC)c(C)c1C [Etretinate] | 0.988 | 1.04 | 0.437 | 0.895
C[C@@H]1C[C@H]2[C@@H]3C[C@H](F)C4=CC(=O)C=C[C@]4(C)[C@@]3(Cl)[C@@H](O)C[C@]2(C)[C@H]1C(=O)COC(=O)C(C)(C)C [Clocortolone pivalate] | 1.09 | 0.57 | 1.41 | 0.918
CN1CCN(CCCN2c3ccccc3Sc3ccc(S(=O)(=O)N(C)C)cc32)CC1 [Thioproperazine dimesylate] | 0.616 | 0.686 | 0.359 | 0.243
CC(N/C(=N\C#N)Nc1ccncc1)C(C)(C)C (stereo not drawn) [Pinacidil] | 0.927 | 0.745 | 1.27 | 1.09
Cn1c(=O)c2c(ncn2CC(=O)O)n(C)c1=O [Acefylline] | 1.11 | 0.846 | 0.974 | 0.869
O=C(O)c1cc(-c2ccc(F)cc2F)ccc1O [Diflunisal] | 0.856 | 0.92 | 0.956 | 0.898
CC(C)(Oc1ccc(Cl)cc1)C(=O)O [Clofibric acid] | 1.17 | 0.979 | 0.954 | 0.972
COc1ccc2c(c1)N(C[C@H](C)CN(C)C)c1ccccc1S2 [Methotrimeprazine maleat salt] | 1.17 | 1.16 | 0.872 | 1.08
C=C[C@H]1CN2CC[C@H]1C[C@@H]2[C@@H](O)c1ccnc2ccc(OC)cc12 [Quinidine hydrochloride monohydrate] | 0.858 | 0.898 | 1.07 | 1.01
